Reference: PubChem BioAssay AID485294 (National Center for Advancing Translational Sciences (NCATS), 2010)
About 150 (0.041%) of roughly 370,000 compounds were called active. Inconclusive means that the source gave no clear call. Such entries were picked first, then a sample of the others. Calls come from the whole dose curve; as a rule, active = well fitted inhibition curve with a large enough effect; inconclusive = small, poorly fitted or top-dose-only effect; inactive = flat fitted curve, though single readings scatter. No potency is given beside an inconclusive call; the fits are too rough.

The compounds below were run against Beta-lactamase (Escherichia coli (strain K12)) (UniProt P00811) (assay: qHTS Inhibitors of AmpC Beta-Lactamase (assay with detergent)). Conditions: AmpC hydrolysis of nitrocefin, absorbance 480 nm, 0.01% Triton; series mostly up to 114 µM.
Sequence of UniProt P00811 (P00811 whole entry, looked up): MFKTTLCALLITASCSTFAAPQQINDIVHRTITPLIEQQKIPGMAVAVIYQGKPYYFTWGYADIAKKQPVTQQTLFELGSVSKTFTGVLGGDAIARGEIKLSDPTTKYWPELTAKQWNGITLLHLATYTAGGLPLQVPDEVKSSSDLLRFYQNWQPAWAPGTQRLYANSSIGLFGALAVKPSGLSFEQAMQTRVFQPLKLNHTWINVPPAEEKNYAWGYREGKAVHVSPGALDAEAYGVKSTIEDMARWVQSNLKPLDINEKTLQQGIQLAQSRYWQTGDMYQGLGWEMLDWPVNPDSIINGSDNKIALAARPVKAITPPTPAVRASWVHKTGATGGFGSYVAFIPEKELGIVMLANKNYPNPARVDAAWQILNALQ
How it was run: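 AmpC (5.3 nM in the dispensed reagent) in 20 mM phosphate pH 7.0 with 0.01% (detergent screen) or 0.0001% Triton X-100 was preincubated with compounds for 15 min at room temperature. Nitrocefin was then added from an 800 uM solution, and hydrolysis was followed at 480 nm.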
Note: nearly all actives have a fitted effect of over 25% in size.
Potency is the fitted concentration of half-maximal effect; tags give direction and shape of the fitted curve.

SMILES | Potency
Cc1cccn2c(=O)c3cc(C(=O)NC4CCCC4)c(=N)n(C4CCCC4)c3nc12 | inconclusive [inhibitor, partial curve]
CCCNC(=O)CN1C(=O)NC(Cc2c[nH]c3ccccc23)C1=O (configuration not stated) | inconclusive [inhibitor, full curve, poor fit]
O=C(COc1ccc(Cl)cc1)Nc1ccc2c(c1)CCC2 | inconclusive [inhibitor, single point]
Cc1ccc(S(=O)(=O)N(C)CC(=O)Oc2ccc(-c3nnco3)cc2)cc1 | inconclusive [inhibitor, full curve, poor fit]
Cc1ccc(N2Cc3ccccc3C2=N)cc1[N+](=O)[O-] | inconclusive [inhibitor, full curve, poor fit]
CCCCn1c(N)c(N(CCC(C)C)C(=O)c2ccc3c(c2)OCCO3)c(=O)[nH]c1=O | inconclusive [inhibitor, full curve, poor fit]
CCCCC(O)(CCCC)C(=O)NNc1ccccc1 | inconclusive [inhibitor, partial curve, poor fit]
CCOc1ccc(C2=C(C(=O)CC)Sc3nncn3N2C(=O)CC)cc1 | inactive
CCOC(=O)c1ccc(NCn2c(=O)oc3ccccc32)cc1 | inconclusive [inhibitor, full curve, poor fit]
COC(=O)c1c(SC)nc2ccccc2c1OCc1ccc(C)cc1 | inactive
CCOC(=O)c1c(C)[nH]c(C(=O)COC(=O)[C@H](C)NC(=O)c2ccccc2Cl)c1C | inactive
O=C(Nc1ccc(C(=O)N2CCCC2)cc1)c1ccccc1[N+](=O)[O-] | inactive
Cn1c(=O)cc(SCC(=O)N2CCOCC2)c2ccc(Cl)cc21 | inconclusive [inhibitor, full curve, poor fit]
Cc1cccc(C)c1NC(=O)CN(C)C(=O)C(c1ccccc1)c1ccccc1 | inconclusive [inhibitor, full curve, poor fit]
C/C(=N\NC(=O)C1(C)CC1(Br)Br)c1ccc([N+](=O)[O-])cc1 (configuration not stated) | inactive
CCCCOC(=O)Cn1nnc2sc(-c3ccccc3)cc2c1=O | inactive
CC(C)N1CCN(Cc2cccc([N+](=O)[O-])c2)CC1 | inconclusive [inhibitor, single point]
COc1ccc(CNC(=O)CN=C2NC(=O)C(c3ccccc3)(c3ccccc3)N2)cc1 | inconclusive [inhibitor, single point]
CCOC(=O)N1CCN(C(=O)Cn2cc3c(n2)CCCC3)CC1 | inconclusive [inhibitor, full curve]
CC(C)Oc1ccc(C(=O)Nc2nnc(C3=COCCO3)o2)cc1 | inconclusive [inhibitor, full curve, poor fit]
CCOC(=O)c1ccc(CC(=O)c2ccc(O)c(O)c2O)o1 | inactive
CCn1c(C)cc(C(=O)CSc2nnc(-c3ccco3)o2)c1C | inactive
O=C(O)C(c1ccccc1)N1C(=O)/C(=C\c2ccc(-c3cccc(Cl)c3)o2)SC1=S (configuration not stated) | inconclusive [inhibitor, full curve, poor fit]

SMILES | Potency
COC(=O)c1ccc2c(=O)[nH]c(CCl)nc2c1 | inconclusive [inhibitor, partial curve, poor fit]
COc1ccc(CCNS(=O)(=O)c2ccc(Br)cc2)cc1OC | inconclusive [inhibitor, full curve]
Cc1cc(N2CCOCC2)ncc1[N+](=O)[O-] | inconclusive [inhibitor, partial curve]
COc1ccc(Cn2c(CCC(=O)Nc3ccc(C)cc3)nc3cccnc32)cc1 | inconclusive [inhibitor, partial curve, poor fit]
Cc1[nH]c(=O)[nH]c1C(=O)CCCCC(=O)O | inconclusive [inhibitor, partial curve, poor fit]
COC(=O)c1ccc(/C=N/NS(=O)(=O)c2cc(C)ccc2C)cc1 | inconclusive [inhibitor, full curve, poor fit]
CN(C)c1nc(N(C)C)nc(N2CC(=O)N(c3ccccc3)C2=N)n1 | inactive
O=C(CNS(=O)(=O)c1ccccc1)N/N=C/c1ccncc1 | inconclusive [inhibitor, full curve, poor fit]
CCC(C(=O)NC(C)(C)C)N(Cc1ccccc1Cl)C(=O)c1snc(C(N)=O)c1N (configuration not stated) | inconclusive [inhibitor, full curve, poor fit]
Cc1cccc(-n2ncc(C(=O)N3CCN(Cc4ccccc4)CC3)c2C2CCN(C(=O)OC(C)(C)C)CC2)c1 | inactive
CN(CC(=O)Nc1c(Cl)cccc1Cl)C(=O)c1ccccc1SCC(=O)N1CCCC1 | inactive
C/C=C/c1ccc(Oc2nnnn2-c2ccc(C(=O)O)cc2)c(OC)c1 | inactive
O=C(c1ccccc1)c1ccc(O)cc1O | inactive
NS(=O)(=O)c1ccc(N=Nc2c[nH]c(=O)c(O)c2)cc1 | inactive
O=C(Nc1ccnc(-c2ccncc2)n1)c1ccccc1Cl | inconclusive [inhibitor, full curve, poor fit]
O=C(CN(Cc1ccc2c(c1)OCO2)C(=O)c1cnsn1)NC1CCCC1 | inconclusive [inhibitor, partial curve, poor fit]
CCCN(CCC)CC(O)COc1ccc2c(c1)OCO2 (configuration not stated) | inactive
COc1cc2[nH]c(-c3cccc(F)c3)cc(=O)c2cc1OC | inconclusive [inhibitor, partial curve, poor fit]
O=P(O)(O)c1ccccc1OCCOCCOc1ccccc1P(=O)(O)O | inconclusive [inhibitor, full curve, poor fit]
CC(C(=O)N1CC2(C)CC1CC(C)(C)C2)N1C(=O)c2ccccc2C1=O (configuration not stated) | inconclusive [inhibitor, full curve]
Cc1ccc(O)c(C(=O)CC(=O)c2ccc(C(C)(C)C)cc2)c1 | inconclusive [inhibitor, partial curve, poor fit]
COc1ccc(CC(=O)Nc2ccc(C(=O)NC(C)(C)C)cc2)cc1 | inconclusive [inhibitor, full curve]
O=C(Nc1ccc2c(c1)OCCO2)C1CCN(S(=O)(=O)c2ccc(Br)s2)CC1 | inconclusive [inhibitor, full curve, poor fit]

SMILES | Potency
CC(=O)Oc1ccc(N2C(=O)C3C4C=CC(C5CC45)C3C2=O)cc1[N+](=O)[O-] (configuration not stated) | inactive
COc1cc(O)c(C(CC(=O)N2CCCC2)c2cc(OC)c(OC)c(OC)c2)c(OC)c1 (configuration not stated) | inactive
COc1cc(C(=O)NNC(=O)c2cc(=O)[nH]c3ccccc23)cc(OC)c1OC | inconclusive [inhibitor, single point]
CCCCN(C)CCCNC(=O)C1CCC(CNS(=O)(=O)c2c(C)cc(C)cc2C)CC1 (configuration not stated) | inactive
Cc1cccc(N=C2NC(=O)/C(=C/c3cccnc3)S2)c1 | inactive
O=C(NC(=S)Nc1cc(C(F)(F)F)ccc1N1CCOCC1)c1ccc(-c2cccc(Cl)c2)o1 | inconclusive [inhibitor, full curve, poor fit]
CCc1ccc(OCCCC(=O)NCc2ccco2)cc1 | inactive
Clc1ccc(Nc2ccc(-n3ccnc3)nn2)cc1Cl | inconclusive [inhibitor, partial curve]
CC(=O)Nc1ccc(C(=O)NNC(=O)c2cccs2)cc1 | inconclusive [inhibitor, partial curve, poor fit]
COC(=O)C1=C(C)N(C)C(=O)NC1c1c(O)ccc2ccccc12 (configuration not stated) | inconclusive [inhibitor, single point]
Cc1cc(C(=O)NCc2ccccc2Cl)c2ccccc2n1 | inconclusive [inhibitor, full curve, poor fit]
C=CCn1c(=N)c(C(=O)NCCCOC)cc2c(=O)n3cc(C)ccc3nc21 | inconclusive [inhibitor, full curve, poor fit]
Cc1cccc(NC(=O)CN2CCN(C(=O)CNC(=O)Cc3cccc4ccccc34)CC2)c1C | inconclusive [inhibitor, full curve, poor fit]
COC(=O)C1=C(c2ccc(F)cc2OCc2ccccc2)C[C@@H]2CC[C@H]1N2C(=O)NC1CCN(Cc2ccccc2)CC1 | inactive
O=C(CSc1nnc(NC2CCCCC2)s1)Nc1ccc(N2CCOCC2)cc1 | inactive
Cn1c(=O)c2c(ncn2CC(=O)NCc2cccnc2)n(C)c1=O | inconclusive [inhibitor, partial curve, poor fit]
CC(C)Nc1ccc(Nc2ccccc2)cc1 | inconclusive [inhibitor, partial curve, poor fit]
COc1ccccc1C(=O)Nc1cccc(-c2cn3ccsc3n2)c1 | inconclusive [inhibitor, full curve]
Cc1cccc2nc(Cn3c(=O)n(CCCC(=O)NCc4ccco4)c(=O)c4ccccc43)cc(=O)n12 | inconclusive [inhibitor, partial curve, poor fit]
COc1ccc(-n2c(C)cc(C(=O)COC(=O)Cc3n[nH]c(=O)c4ccccc34)c2C)cc1 | inactive
CC1(C)Cc2c(cnn2-c2ccccc2)C(NC(=O)CCCN2CCCC2=O)C1 (configuration not stated) | inconclusive [inhibitor, full curve, poor fit]
